# Source: the RNAGym collection of RNA variant scans (doi:10.7554/elife.90254)
# The source gives no read counts; variants with many changes may rest on few reads.
# B1: LINE1-mini (parent)
# chain: GGCAGAGCUCAACACAGCGUGGCAAAGUGGCUGUGGCUAGACUGCC
# Variants of: B1
# Test: self-cleavage, relative activity (ratio to wild type); higher = more cleavage; in vitro, sequencing; the parent is a self-cleaving ribozyme
row,Variant,self-cleavage
1,C15U G17U C18U A39U,0.04
2,C15A A26C G36A,0.15
3,C15U C23U G30U,0.57
4,C15G G29C U34A C46G,0.01
5,C15A A25G G27A G40C U43C,0.02
6,C15G C31U G33U A39C,0.01
7,C15U G29A A39G,0.08
8,C15A C23U A25G G29U G36A C46U,0.02
9,C15G G17C G21A G22U,0.06
10,C15A C18A C31A C42A,0.02
11,A14U U32G G40C,0.02
12,C15U G29C C31U,0.17
13,C15G A24U A25C,0.03
14,C15A C18A C42U U43C,0.03
15,C15A A16G U38C G40C,0.05
16,C15U C18A C23A A39G,0.06
17,C15G U28G G33U,0.09
18,C15G A24G C42U,0.02
19,A16C A26U G29U A41G,0.18
20,C15A A39C C46G,0.03
21,C15A A16U G17A A24C A25G U28C G44C,0.01
22,C15U U28G G35U,0.13
23,C15U G19U U20G G29U,0.54
24,C15G G17U A26U,0.07

row,Variant,self-cleavage
1,A14U G22U C23G G40C,0.04
2,C15G C18U G19A U28G C45A,0.01
3,C15G U20G C31A G33U G36U,0.04
4,A16C G17U C37A A39G C45A,0
5,C15A G17A G40U,0.02
6,C15A C18U G33U C42U,0.2
7,C15A G30A C31G A41U,0
8,A16C A24U U32G U43A,0.02
9,C15G U28G G40C,0.02
10,C15A G27A C42A U43A,0.04
11,A14U G30U G40C,0.1
12,C15U G27C C31G,0.06
13,C15G G27C G40U,0.02
14,A14U G21A G22U,1.43
15,C15A C18A A26G U38A C45G,0.01
16,C15G C18G G22U,0.03
17,C15U G21U G36U C45A,0.02
18,A14U G22A G40A,0.13
19,A14U G17U C31U U38C A39U C45A,0.02
20,C15U G19U U20G U28G C46G,0.67
21,C15U G36A A41U C42A,0.26
22,C15A G27U U28C C42G,0.03
23,C15U A25G G44A,0.05
24,A16C A26C G29C U38A,0.08

row,Variant,self-cleavage
1,C15A A25U G30A C45G,0.05
2,C15A G17C C23U A39C,0.01
3,C15U G27C U28A G29C,0.44
4,C15G G17C U20G U32A C37A,0.18
5,C15U A16C G27C,0.06
6,C15U G29A G35U G36U,0.12
7,C15A G17U G33C C45A,0.02
8,C15A U28G G30A,0.02
9,A14U G27U G35U C37U G40U,0.06
10,C15A G21U G40C,0.01
11,C15U A16C U20A A41U C45U,0.01
12,C15A A16C G27U,0.05
13,C15A A16U G36C C37A,0.09
14,C15A G21U C23U,0.09
15,C15U G17U G19U C23G U38C,0.01
16,A14U U28G C37U A39G,0.01
17,C15U C18G G21A A25U U28C,2.18
18,C15G A16U G40U,0.08
19,C15A A16G G33C G44C,0
20,A16C G17A U32C A39U,0.07
21,C15G G17A G35U,0.01
22,C15G G17U U34A G35C,0.07
23,C15U C23G U32C,0.12
24,C15A C18G C37G,0.03

row,Variant,self-cleavage
1,C15A A16G G22A U28C G29C C46G,0.02
2,C15A G27C G40C,0.24
3,A16C C23A G35C G44A,0.2
4,A14U U20A G30U,0.06
5,C15G G22U A26C C37G,0
6,A14U G22C G29C,0.39
7,C15U U20A A25C,0.1
8,C15U G27U U28G,0.19
9,C15A G27C G29A,0.06
10,C15U A25U U34G,0.03
11,A16C G19A U34A C37U G40U,0
12,C15A C31G U34C,0.03
13,C15U G27A U34C U43C,0.04
14,C15U G19C U20A G21A,0.25
15,C15U G21U U28A G40C,0.03
16,C15A G30C G35U G36A A39G,0.07
17,C15A A41C C42G,0
18,C15A G17A C18A G27U,0.02
19,C15A G19U C45A,0.05
20,C15A G27U G30U,0.16
21,C15A C18U A24U,0.06
22,C15G C18A U34A,0.02
23,C15A A16C G35U,0.01
24,C15A G21C A26C G30C G35U,0.02

row,Variant,self-cleavage
1,C15A A25C U28C,0.03
2,C15G A25G G36C G40U,0.01
3,C15U G35U G40C A41C,0.02
4,C15G G19A A24C A25G G33A,0.02
5,A14U U32A U34G,0.09
6,C15G G27U G36U C42U,0.03
7,C15A U28C C46A,0.02
8,C15A A24G C42A C45U,0.06
9,C15G U20A C31A,0.05
10,C15A A25U G35U,0.42
11,C15U C18G A25G,0.03
12,C15U A16C C18U C42G,0.05
13,C15U G35C C42U C45A,0
14,C15A U20A G30C G36C A41C,0.07
15,C15A G36A C42G,0.01
16,C15U G22C C23A G29C,0.81
17,C15G A16U G35A,0.03
18,C15G C23A C37G A39C,0.01
19,A16C C23U G40A C45G C46U,0.07
20,A16C C31G U38G G40U,0.01
21,A14U G29U A39G,0.06
22,C15G U28C G29U C42A C46U,0.08
23,A14U G22U G29A,1.69
24,C15U A24U U34G,0.18

row,Variant,self-cleavage
1,C15A A24G C37A,0.04
2,A14U U43C C45U,0.04
3,C15U G17U G29A C42U,0.05
4,C15A G17C A26U G33A G40C,0.04
5,C15A A24U A26U U32A,0.01
6,C15U A16C G19C G22U,1.01
7,C15G U38C G40U,0.01
8,C15U C18A G35C C45G,0.01
9,C15A G21U G29U,0.3
10,C15U G19A G40U,0.06
11,C15U G35U G36A,0.13
12,C15U A25G U28G,0.17
13,C15G A25U G40U,0.02
14,C15U G30A C42G G44U C45U,0.06
15,C15U G29A C42U,0.35
16,A16C A25C U32G,0.24
17,C15G A24C C42G U43C,0
18,C15U A26G C45G,0.1
19,C15U G17A U28G C46U,0.04
20,A14U G17U G30C C46A,0.06
21,C15A G19C C23U A24U A25C C31A,0.11
22,A14U U20C C23A,0.59
23,C15U C18U A26G C31G U32G G36A C46A,0.01
24,C15G C23A A39G,0.01

row,Variant,self-cleavage
1,C15U G29U A39C G40A,0.2
2,C15U U20C G36U,0.14
3,C15U U20A U34C A39C G44C,0.03
4,A16C C23G G33U,0.02
5,C15U G19U A41U,0.03
6,A16C G17A C37U,0.08
7,A16C G17C C18U U20A C23U U28A G30C U32G G35U,0.01
8,C15U G21U G40U,0.03
9,A14U U20G C31A,0.01
10,C15U C18A G30U C31G G44U,0.02
11,C15G G19U C46U,0
12,C15A G29C U38A C45U,1.04
13,C15A G19U C31U,0.03
14,C15G G21A G22U U32G G36C A39G C42U,0
15,C15G G33A U38A,0.06
16,A16C G17U G22C G40U,0.02
17,C15A G33C G40A,0.04
18,C15U G29A U32G,0.23
19,A16C C18A G35C,0.06
20,C15U C23A G30C C42A,0.06
21,A16C G17A U28A C45G,0.02
22,A14U G27A U32C C37G C42U,0.13
23,C15A G17A G35U,0.04
